We go through 1 molecule from paper PMC3646547 (Nature communications, 2012).

The target in one data set is T1, FANCM^661-800 (human, UniProt Q8IYD8 661-800).
T1 sequence (looked up): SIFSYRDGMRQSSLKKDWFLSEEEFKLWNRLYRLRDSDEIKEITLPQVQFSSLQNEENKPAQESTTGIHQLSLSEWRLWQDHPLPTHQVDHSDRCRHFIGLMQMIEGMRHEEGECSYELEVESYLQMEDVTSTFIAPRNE
The experiment in a line: crystal structure.

The data set “crystal structure” deals with the molecule itself. The experiment in a line: crystal structure.

B1: MHF1^[…] (SeMet derivative) (domain or fragment)
chain: not shown
modifications: selenomethionine (SeMet-derivative protein)
Regarding B1, the binding result with FANCM^661-800 and in “crystal structure” was “binds” each time.
